# Source: the supplement of paper PMC12645437, “Orthogonal IMiD-Degron Pairs Induce Selective Protein Degradation in Cells” (ACS Chemical Biology, 2025)
# The list shows a part of the results.
# Target: no compound (DMSO)
# Assay: log2 fold change of degron read counts, EGFP-low vs EGFP+ sorted cells; higher = lower degron-EGFP level without compound (poor expression or instability)
# Details: compound: DMSO control; 18 h
# 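Note: jurkat cells carrying a lentiviral library of mutant zinc finger degrons fused to EGFP plus mCherry, mCherry+ cells FACS sorted, degron abundance counted by next-generation sequencing.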
row,Sequence,log2 fold change of degron read counts
1,LDCEICGFTCTQKGNLLRHIKL,0.557
2,FACDVCGAPFTQKGNLLRHIKL,-0.749
3,FFCNVCGAYFTQKGNLLRHIKL,0.952
4,FVCNQCGRVFTQKGNLLRHIKL,0.15
5,FCCPICGRPFTQKGNLLRHIKL,0.195
6,LHCNQCGFHCTQKGNLLRHIKL,1.1
7,FWCPICGHEFTQKGNLLRHIKL,0.632
8,FFCNQCGAYFTQKGNLLRHIKL,0.647
9,FTCNQCGRWFTQKGNLLRHIKL,0.49
10,FECDICGAVFTQKGNLLRHIKL,-2.02
11,LRCEICGFPCTQKGNLLRHIKL,1.54
12,FCCDQCGAYFTQKGNLLRHIKL,-0.198
13,FQCNQCGAFFTQKGNLLRHIKL,-1.07
14,FLCPICGALFTQKGNLLRHIKL,0.707
15,FGCDICGACFTQKGNLLRHIKL,-0.944
16,FWCEICGHYFTQKGNLLRHIKL,0.206
17,LACEICGFYCTQKGNLLRHIKL,1.09
18,LHCNQCGFACTQKGNLLRHIKL,1.06
19,LYCEICGFNCTQKGNLLRHIKL,0.818
20,FSCEICGHHFTQKGNLLRHIKL,-0.665
21,FDCPICGHNFTQKGNLLRHIKL,-0.605
22,FICNQCGAAFTQKGNLLRHIKL,-1.74
23,FECPQCGAGFTQKGNLLRHIKL,-1.82
24,FFCDVCGACFTQKGNLLRHIKL,-0.38
25,LDCNQCGFWCTQKGNLLRHIKL,1.84

row,Sequence,log2 fold change of degron read counts
1,FICEICGHPFTQKGNLLRHIKL,-1.22
2,FKCEICGHMFTQKGNLLRHIKL,-2.31
3,FTCDICGAVFTQKGNLLRHIKL,-1.16
4,FCCPVCGAKFTQKGNLLRHIKL,-0.00342
5,FWCDICGAFFTQKGNLLRHIKL,0.64
6,FICEQCGAWFTQKGNLLRHIKL,-0.159
7,FSCDVCGAIFTQKGNLLRHIKL,-0.143
8,FWCPICGHPFTQKGNLLRHIKL,1.59
9,FFCNQCGATFTQKGNLLRHIKL,-0.0254
10,FYCNVCGAPFTQKGNLLRHIKL,0.216
11,FHCPQCGAIFTQKGNLLRHIKL,-0.0813
12,FECPQCGAWFTQKGNLLRHIKL,-1.55
13,LQCNQCGFICTQKGNLLRHIKL,0.134
14,FACDVCGAGFTQKGNLLRHIKL,-1.62
15,FWCNQCGRCFTQKGNLLRHIKL,0.98
16,FHCEVCGAQFTQKGNLLRHIKL,-2.28
17,FYCPICGHVFTQKGNLLRHIKL,-0.118
18,FMCNVCGACFTQKGNLLRHIKL,-0.8
19,FACPICGAVFTQKGNLLRHIKL,0.126
20,LWCNQCGFDCTQKGNLLRHIKL,1.06
21,FFCEVCGAAFTQKGNLLRHIKL,-0.912
22,FDCDVCGAHFTQKGNLLRHIKL,-1.48
23,FTCPICGANFTQKGNLLRHIKL,0.123
24,FECPICGARFTQKGNLLRHIKL,0.496
25,FHCEICGHHFTQKGNLLRHIKL,-0.766
